No constants are given. Whether binding was seen depends on the method and setting. Binding seen in cells or lysates may run through a third protein. Some binding calls cover weakened binding; strength is not graded here. Tags and fused reporters may be left off the sequences shown.
Assays:
Assay in all cases: co-IP; HEK293 cells transfected with epitope-tagged expression plasmids, lysed 24 h later; lysates immunoprecipitated with anti-Myc or anti-Flag beads and immunoblotted; in Fig. 7f,g with SDC4 overexpressed or knocked down by siRNA
[1] = molecular target: T1, CYLD-(M1) (deleted for amino acids 556–655) (UniProt Q9NQC7)
T1 sequence: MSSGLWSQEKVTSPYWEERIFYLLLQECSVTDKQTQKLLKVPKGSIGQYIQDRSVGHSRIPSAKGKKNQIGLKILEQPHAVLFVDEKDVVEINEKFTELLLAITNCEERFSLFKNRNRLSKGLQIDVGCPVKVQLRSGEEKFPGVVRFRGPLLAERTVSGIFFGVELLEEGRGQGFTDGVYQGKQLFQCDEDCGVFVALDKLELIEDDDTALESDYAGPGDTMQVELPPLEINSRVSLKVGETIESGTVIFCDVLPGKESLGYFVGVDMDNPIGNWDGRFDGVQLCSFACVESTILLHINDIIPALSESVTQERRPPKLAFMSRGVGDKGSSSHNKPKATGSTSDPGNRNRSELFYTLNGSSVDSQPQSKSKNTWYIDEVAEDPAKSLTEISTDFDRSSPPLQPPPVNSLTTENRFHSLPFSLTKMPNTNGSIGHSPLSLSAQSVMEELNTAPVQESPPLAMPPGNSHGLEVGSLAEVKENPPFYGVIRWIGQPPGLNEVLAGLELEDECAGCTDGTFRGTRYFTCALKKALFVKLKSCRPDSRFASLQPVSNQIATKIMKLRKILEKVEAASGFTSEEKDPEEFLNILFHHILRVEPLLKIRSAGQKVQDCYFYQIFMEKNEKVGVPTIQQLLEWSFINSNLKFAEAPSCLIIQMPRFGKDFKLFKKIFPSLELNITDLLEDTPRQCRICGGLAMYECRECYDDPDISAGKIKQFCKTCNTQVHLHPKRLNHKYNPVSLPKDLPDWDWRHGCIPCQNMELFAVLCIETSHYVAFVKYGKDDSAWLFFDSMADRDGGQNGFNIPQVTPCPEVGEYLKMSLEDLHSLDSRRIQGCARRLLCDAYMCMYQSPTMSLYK

Flag-tagged CYLD = molecular target: T2, Flag-tagged CYLD (UniProt Q9NQC7)
T2 sequence: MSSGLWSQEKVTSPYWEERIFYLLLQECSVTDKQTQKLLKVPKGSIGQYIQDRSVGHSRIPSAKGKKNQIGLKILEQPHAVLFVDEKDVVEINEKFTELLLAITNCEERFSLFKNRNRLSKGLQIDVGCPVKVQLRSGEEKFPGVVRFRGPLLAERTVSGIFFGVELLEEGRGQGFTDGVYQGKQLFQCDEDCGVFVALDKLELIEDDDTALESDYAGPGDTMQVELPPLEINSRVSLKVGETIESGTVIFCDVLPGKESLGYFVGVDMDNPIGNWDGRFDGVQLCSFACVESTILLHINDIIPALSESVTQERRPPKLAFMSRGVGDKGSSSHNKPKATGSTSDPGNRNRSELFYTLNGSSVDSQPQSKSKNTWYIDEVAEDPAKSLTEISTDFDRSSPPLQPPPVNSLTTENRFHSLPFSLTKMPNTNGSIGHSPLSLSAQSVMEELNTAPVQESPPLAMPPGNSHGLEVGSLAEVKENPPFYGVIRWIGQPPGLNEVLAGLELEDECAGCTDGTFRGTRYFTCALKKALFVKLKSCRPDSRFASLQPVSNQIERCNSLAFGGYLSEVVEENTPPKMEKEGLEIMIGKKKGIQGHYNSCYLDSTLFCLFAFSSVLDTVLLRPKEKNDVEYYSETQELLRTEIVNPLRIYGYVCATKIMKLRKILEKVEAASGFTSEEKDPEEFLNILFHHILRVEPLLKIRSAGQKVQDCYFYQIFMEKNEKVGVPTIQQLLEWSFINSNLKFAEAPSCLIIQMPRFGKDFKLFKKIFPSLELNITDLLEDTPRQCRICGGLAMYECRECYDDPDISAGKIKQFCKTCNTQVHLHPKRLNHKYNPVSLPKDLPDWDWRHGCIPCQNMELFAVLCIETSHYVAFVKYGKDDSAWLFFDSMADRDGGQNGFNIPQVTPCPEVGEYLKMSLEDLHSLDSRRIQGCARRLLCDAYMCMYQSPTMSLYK

[2] = molecular target: T3, Flag-tagged full-length RIG-I (human) (UniProt O95786)
T3 sequence: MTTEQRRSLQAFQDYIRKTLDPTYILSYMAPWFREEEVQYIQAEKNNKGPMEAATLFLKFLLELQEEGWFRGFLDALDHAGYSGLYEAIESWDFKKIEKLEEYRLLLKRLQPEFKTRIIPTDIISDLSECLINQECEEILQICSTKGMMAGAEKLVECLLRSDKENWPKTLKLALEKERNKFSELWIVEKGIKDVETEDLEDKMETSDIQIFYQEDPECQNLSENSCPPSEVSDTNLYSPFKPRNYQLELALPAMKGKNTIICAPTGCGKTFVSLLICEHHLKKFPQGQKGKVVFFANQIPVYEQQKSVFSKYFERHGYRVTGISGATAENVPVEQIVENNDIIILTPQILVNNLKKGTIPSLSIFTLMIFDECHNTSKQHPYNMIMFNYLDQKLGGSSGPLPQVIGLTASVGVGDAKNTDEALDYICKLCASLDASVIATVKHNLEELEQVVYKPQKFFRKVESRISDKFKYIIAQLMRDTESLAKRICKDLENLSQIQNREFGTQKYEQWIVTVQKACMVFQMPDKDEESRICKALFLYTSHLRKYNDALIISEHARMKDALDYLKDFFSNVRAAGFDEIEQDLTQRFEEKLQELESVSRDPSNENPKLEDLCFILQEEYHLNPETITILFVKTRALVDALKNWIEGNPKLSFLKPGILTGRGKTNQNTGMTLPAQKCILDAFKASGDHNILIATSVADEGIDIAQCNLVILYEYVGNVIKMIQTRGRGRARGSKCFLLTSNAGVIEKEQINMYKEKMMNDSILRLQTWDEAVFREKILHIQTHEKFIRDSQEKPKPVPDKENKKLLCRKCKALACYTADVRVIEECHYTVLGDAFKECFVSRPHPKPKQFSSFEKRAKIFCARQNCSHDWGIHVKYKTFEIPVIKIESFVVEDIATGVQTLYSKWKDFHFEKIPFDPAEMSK

B1: Myc-tagged SDC4 (protein, UniProt P31431 19-198)
chain: ESIRETEVIDPQDLLEGRYFSGALPDDEDVVGPGQESDDFELSGSGDLDDLEDSMIGPEVVHPLVPLDNHIPERAGSGSQVPTEPKKLEENEVIPKRISPVEESEDVSNKVSMSSTVQGSNIFERTEVLAALIVGGIVGILFAVFLILLLMYRMKKKDEGSYDLGKKPIYKKAPTNEFYA
Which results are given for B1?
binding [1]: no binding; binding (Flag-tagged CYLD): binds; binding [2]: binds

From paper PMC4906230
